# Where “and” joins values, the source holds several entries; their conditions need not be identical. Equal values may be shown once. Inconclusive means that the source gave no clear call. Such entries were picked first, then a sample of the others. For part of these data: A potency beside an inconclusive call is a rough fit, not a confirmed value. Calls of active or inactive are those of the source. Calls follow the shape of the dose curve; as a rule, active = well fitted curve in the direction sought with a large enough effect; inconclusive = small, poorly fitted or top-dose-only effect, or another doubt; inactive = no such curve, though single readings can be large; an effect the other way counts as inactive or inconclusive. Peptide text beside a SMILES is read from it.
# What was measured:
# [1] = Primary qHTS for inhibitors of nuclear receptor binding SET domain protein 2 (NSD2) in an isogenic RCH-ACV NSD2 p.E1099K mutant (9B) (AID 1645876); also: nearly all actives have a fitted effect of over 70% in size; also: potency is read from the fitted curve at half-maximal effect
# [2] = Primary qHTS for inhibitors of nuclear receptor binding SET domain protein 2 (NSD2) in an RCH-ACV wild type WT cells (2C) (AID 1645877); conditions: activity change, negative = cell killing: at 44.9 µM (top of the series) unless noted; also: nearly all actives have a fitted effect of over 70% in size; also: potency is read from the fitted curve at half-maximal effect; as to activity change, negative = cell killing: % is scaled to controls: 0 for no effect and ±100 for the full control effect
# CP260 = assay: qHTS profiling for inhibitors of Plasmodium falciparum proliferation (AID 504749); also: nearly all actives have a fitted effect of over 60% in size; also: potency is read from the fitted curve at half-maximal effect; conditions: P. falciparum in erythrocytes, SYBR Green DNA, 72 h; series mostly up to 28.7 µM
# In short: (§1)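 Fluorescence of SYBR Green-bound parasite DNA, read at 485/535 nm, served as the growth measure. Infected erythrocytes were cultured with compound 72 h; artemisinin (0.29 uM) and DMSO wells defined the normalization range.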
# NIH3T3 = assay: Cytotoxic Profiling of Annotated Libraries Using Quantitative High-Throughput Screening (AID 1296008); conditions: Five cell lines viability, CellTiter-Glo ATP luminescence, 48-72 h; max response: hits give low values; also: nearly all actives have a fitted effect of over 60% in size; also: potency is read from the fitted curve at half-maximal effect; as to max response: % is scaled to controls: 0 for no effect and ±100 for the full control effect
# In short: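 Compounds were pin-transferred onto cells and incubated 48 or 72 hr at 37 degree Celsius, 95% humidity. CellTiter-Glo was added, plates sat 10 min at room temperature, then ATP-coupled luminescence was imaged as the viability read-out.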
# SKOV3 = assay: Primary qHTS to identify gynecologic anti-cancer compounds using libraries of approved drugs and bioactive compounds (AID 1345084); conditions: Gynecologic cancer cell panel viability, ATPlite luminescence, 48 h; series mostly up to 57.5 µM; also: nearly all actives have a fitted effect of over 55% in size; also: potency is read from the fitted curve at half-maximal effect; as to activity change, negative = cytotoxicity: % is scaled to controls: 0 for no effect and ±100 for the full control effect
# In short: (§2)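 48 h compound exposure at 37 C, 5% CO2; five-point qHTS. ATPlite luminescence readout of cell ATP.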
# [3] = P-glycoprotein substrates identified in KB-8-5-11 adenocarcinoma cell line, qHTS therapeutic library screen (AID 1346987); also: nearly all actives have a fitted effect of over 65% in size; also: potency is read from the fitted curve at half-maximal effect
# In short: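 In this qHTS, P-gp-rich KB-8-5-11 cells received library compounds across a concentration range. Viability was quantified by luminescence after 72 h at 37 degree C.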
# [4] = Primary fluorescence-based thiol-reactive (MSTI) qHTS assay for identification of artifact compounds. (AID 1845221); also: potency is read from the fitted curve at half-maximal effect;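 also: thiol-reactive compounds lower the probe fluorescence signal; nearly all actives have a fitted effect of over 65% in size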
# In short: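 First, 4 uM MSTI in 2% DMSO/PBS pH 7.4 was dispensed; next, compounds were added; then plates sat 1 h at room temperature without light. Finally, emission at 598 nm was recorded.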
# [5] = qHTS of pediatric cancer cell lines to identify multiple opportunities for drug repurposing: Primary screen for BT-37 cells (AID 1347094);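 also: plate controls were DMSO for no effect and bortezomib for full effect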
# In short: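 Quantitative HTS format: each compound titrated (MIPE 11 points from 0.78 nM, NPC 8 points from 0.59 nM) onto cells plated 5 hours earlier. After 48 h at 37 degrees C, CellTiter-Glo luminescence was recorded.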
# CP247 = assay: qHTS profiling for inhibitors of Plasmodium falciparum proliferation (AID 504749); also: nearly all actives have a fitted effect of over 60% in size; also: potency is read from the fitted curve at half-maximal effect; conditions: P. falciparum in erythrocytes, SYBR Green DNA, 72 h; series mostly up to 28.7 µM
# In short: as §1
# DIV14 = assay: as above; conditions: P. falciparum in erythrocytes, SYBR Green DNA, 72 h; series mostly up to 28.7 µM
# In short: as §1
# [6] = Drug repurposing screens with cells derived from glioblastoma tumor samples (AID 1345199); conditions: GBM patient neurospheres viability, ATP luminescence, 48 h; Potency: tumour line A unless noted; activity, negative = cell killing: at 46 µM (top of the series), tumour line A unless noted; also: % is scaled to controls: 0 for no effect and ±100 for the full control effect; nearly all actives have a fitted effect of over 40% in size
# In short: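 Primary testing used CD133+ neurospheres from four GBM patients, seven concentrations, 48 h exposure and ATP-based viability; confirmation added three slower-growing patient lines.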
# [7] = test system: Zika virus NS2B-NS3 protease (unlinked complex); assay: Primary screen GU Rhodamine qHTS for Zika virus inhibitors: Unlinked NS2B-NS3 protease assay (AID 1347159); also: potency is read from the fitted curve at half-maximal effect; nearly all actives have a fitted effect of over 60% in size
# In short: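 Buffer 10 mM Tris-HCl pH 8.0, 0.01% Tween 20. Unlinked protease 25 nM; compound preincubation 15 min, RT, protected from light. Substrate Rhod110, 1.5 microM; ~15% conversion in 15 min.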
# [8] = test system: Zika virus NS2B-NS3 protease (linked construct); assay: Primary screen NINDS Rhodamine qHTS for Zika virus inhibitors (AID 1347160); conditions: activity change, negative = inhibition: at 57.1 µM (top of the series) unless noted; also: nearly all actives have a fitted effect of over 55% in size; also: potency is read from the fitted curve at half-maximal effect
# In short: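 Aprotinin served as in-plate control. Conditions: 25 nM linked NS2B-NS3, pH 8.0 Tris buffer, titrated compounds, 15 min preincubation and 15 min reaction with 1.5 microM Rhod110 substrate at room temperature.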
# [9] = Primary redox qHTS assay for identification of artifact compounds. (AID 1845223); conditions: Amplex Red/HRP redox cycling with DTT, fluorescence; redox activity (% of DA3003): at 53.8 µM (top of the series); also: potency is read from the fitted curve at half-maximal effect;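 as to redox activity (% of DA3003): 0% = DMSO and 100% = reference compound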
# In short: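 Redox-cycling detection via DTT (250 uM final) oxidation coupled to Amplex Red (25 uM)/HRP (250 mU/mL) in HBSS. 15 min preincubation plus 30 min after DTT, room temperature. Ex/Em 525/598 nm; 4-parameter Hill fit against DMSO and 10 uM DA3003.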
# Hek293T = assay: Primary qHTS to identify gynecologic anti-cancer compounds using libraries of approved drugs and bioactive compounds (AID 1345084); conditions: Gynecologic cancer cell panel viability, ATPlite luminescence, 48 h, control line for the selectivity index; activity change, negative = cytotoxicity: at 57.5 µM (top of the series) unless noted; also: nearly all actives have a fitted effect of over 55% in size; also: potency is read from the fitted curve at half-maximal effect; as to activity change, negative = cytotoxicity: % is scaled to controls: 0 for no effect and ±100 for the full control effect
# In short: as §2
# OV90 = assay: as above; conditions: Gynecologic cancer cell panel viability, ATPlite luminescence, 48 h; series mostly up to 57.5 µM
# In short: as §2
# PA-1 = assay: as above; conditions: Gynecologic cancer cell panel viability, ATPlite luminescence, 48 h; series mostly up to 57.5 µM
# In short: as §2
# Tags tell the direction and shape of the fitted curve.
smiles,measurement,setting,value
Cn1c(=O)c2c(ncn2CCO)n(C)c1=O,Potency,[1],inactive
same,Potency,[2],"inconclusive: 29.9 µM [inhibitor, partial curve, poor fit]"
same,Potency,CP260,inactive
same,max response,NIH3T3,inactive: -3.21%
same,Potency,SKOV3,inactive
C=C[C@H]1[C@H](O[C@@H]2O[C@H](CO)[C@@H](O)[C@H](O)[C@H]2O)OC=C(C(=O)OC)[C@H]1CC(=O)O,Potency,[2],inactive
same,max response,NIH3T3,inactive: -8.69%
same,Potency,SKOV3,inactive
O=C1OCC(c2ccccc2)=C1Cc1ccccc1,Potency,[3],inactive
same,Potency,[4],inactive
same,max response,NIH3T3,inactive: -8.21%
same,Potency,SKOV3,"inconclusive: 6.31 µM [rising, single point]"
Clc1cccc(C(c2ccc3nc[nH]c3c2)n2ccnc2)c1 (stereo not drawn),Potency,[3],"inconclusive: 29.1 µM [inhibitor, single point]"
same,Potency,[5],inactive
same,Potency,[1],"inconclusive: 37.2 µM [inhibitor, partial curve, poor fit]"
same,Potency,CP247,"inconclusive: 11.2 µM [inhibitor, partial curve]"
same,Potency,CP260,"inconclusive: 11.2 µM [inhibitor, single point]"
same,Potency,DIV14,active: 15.1 µM
same,max response,NIH3T3,inactive: -0.487%
CC(=O)c1ccc(S(=O)(=O)NC(=O)NC2CCCCC2)cc1,Potency,[3],inactive
same,Potency,[5],inactive
same,Potency,CP247,inactive
same,Potency,DIV14,inactive
same,max response,NIH3T3,inactive: -3.55%
same,Potency,[6],inactive
CC(C)N(CCC(=O)c1ccc2ccccc2c1)Cc1ccccc1,Potency,[3],"inconclusive: 25.9 µM [inhibitor, single point] and inconclusive: 20.6 µM [inhibitor, single point]"
same,Potency,[7],"inconclusive: 44.7 µM [inhibitor, partial curve]"
same,Potency,[1],active: 6.61 µM and active: 8.2 µM
same,Potency,NIH3T3,active: 10.3 µM
Cn1cc(-c2ccc3nnc(Sc4ccc5nn(C)cc5c4)n3n2)cn1,Potency,[3],inactive
same,Potency,[8],inactive
same,Potency,[2],inactive
same,Potency,NIH3T3,"inconclusive: 16.4 µM [inhibitor, single point]"
CC(CCC1(O)OC2CC3C4CC=C5CC(O[C@@H]6O[C@H](CO)[C@@H](O[C@@H]7O[C@H](CO)[C@@H](O)[C@H](O)[C@H]7O)[C@H](O)[C@H]6O[C@@H]6O[C@@H](C)[C@H](O)[C@@H](O)[C@H]6O)CCC5(C)C4CCC3(C)C2C1C)CO[C@@H]1O[C@H](CO)[C@@H](O)[C@H](O)[C@H]1O (stereo partly drawn),Potency,[3],"inconclusive: 5.51 µM [inhibitor, single point]"
same,Potency,[1],"inconclusive: 6.15 µM [inhibitor, single point]"
same,Potency,[2],"inconclusive: 6.15 µM [inhibitor, single point]"
same,Potency,NIH3T3,"inconclusive: 6.93 µM [inhibitor, single point]"
same,"activity change, negative = cytotoxicity",SKOV3,inactive: -2.2% [at 11.6 µM]
CCc1cccc2c3c([nH]c12)[C@@](CC)(CC(=O)O)OCC3,Potency,[4],"inconclusive: 9.47 µM [inhibitor, partial curve]"
same,Potency,CP260,inactive
same,max response,NIH3T3,inactive: 1.91%
NC(=O)[C@H](Cc1ccccc1)NC(=O)[C@H](CCCN=C(N)N)NC(=O)C12CC3CC(CC(C3)C1)C2,Potency,[8],"inconclusive: 1.5 µM [inhibitor, full curve, poor fit]"
same,"activity change, negative = thiol reactive",[4],inactive: 37.2% [at 11.5 µM]
same,outcome,NIH3T3,inactive
same,"activity change, negative = cytotoxicity",SKOV3,inactive: 6.06% [at 11.6 µM]
CCC(Nc1ncnc2nc[nH]c12)c1nc2cccc(F)c2c(=O)n1-c1ccccc1 (stereo not drawn),Potency,[3],inactive
same,Potency,NIH3T3,"inconclusive: 18.4 µM [inhibitor, single point]"
same,Potency,SKOV3,inactive
O=C(CN1C(=O)C2(CCCC2)NCC1c1cc(F)cc(F)c1)Nc1ccc2c(c1)CC1(C2)C(=O)Nc2ncccc21 (stereo not drawn),Potency,[2],inactive
same,max response,NIH3T3,inactive: -0.622%
O=C(C[C@@H]1C(C(=O)O)=CO[C@@H](O[C@@H]2O[C@H](CO)[C@@H](O)[C@H](O)[C@H]2O)/C1=C\CO)OCCc1ccc(O)cc1,Potency,[4],"inconclusive: 9.22 µM [inhibitor, partial curve]"
same,outcome,NIH3T3,inactive
Cc1ccccc1CN1C2=NCCN2C(=O)C2=C1CCN(Cc1ccccc1)C2,Potency,[3],"inconclusive: 10.3 µM [inhibitor, partial curve]"
same,Potency,[2],inactive
same,Potency,[9],inactive
same,Potency,SKOV3,"inconclusive: 28.2 µM [rising, single point]"
CSCC[C@H](NC(=O)[C@H](CO)NC(=O)[C@H](CCC(=O)O)NC(C)=O)C(=O)N[C@H](C=O)CC(=O)O (Ac-ESMD-aldehyde),Potency,[8],"inconclusive: 1.34 µM [inhibitor, full curve]"
same,max response,NIH3T3,inactive: -20.7%
CNC(=O)c1ccccc1Nc1nc(Nc2ccc3c(c2OC)CCC[C@@H](N2CCN(CCO)CC2)C3)ncc1Cl,Potency,[9],"inconclusive: 2.99 µM [activator, single point]"
same,Potency,Hek293T,"inconclusive: 28.2 µM [cytotoxic, single point]"
same,Potency,OV90,active: 7.94 µM
same,Potency,PA-1,active: 10 µM
same,Potency,SKOV3,"inconclusive: 10 µM [cytotoxic, partial curve, poor fit]"

# Source: PubChem BioAssay (NCATS)
